Experimental data: paper PMC4336329 (PLoS ONE, 2015)
This is a selection; strong and weak results do not stand in their true shares. Effects have a minus sign here.

What follows are compounds tested against human ether-à-go-go-related gene (hERG) potassium channel (human, UniProt Q12809) (assay: primary screen, population patch clamp on CHO cells stably expressing hERG; higher = less effect of the substance).
Description: Briefly, Chinese hamster ovary (CHO) cells stably expressing the hERG channel were dislodged from tissue culture flasks and dispensed into PPC plates. […] During the recording, background leak currents were estimated by a 100 ms step to -80 mV from an initial holding potential of -70 mV and subtracted from the subsequent current measurement. The campaign was conducted in two phases using slight differences in recording protocol. In the first phase, the initial voltage pulse used a 100 ms step to -30 mV from a holding potential of -70 mV, a 2 s conditioning step to +25 mV, and a 2 s test step to -30 mV. During the second phase of the screen, the potential during the conditioning step was raised to +45 mV. In both phases of the campaign, a secondary voltage pulse was applied using the same parameters as the second phase initial pulse. The initial and secondary pulses were applied in the absence of compound, and upon application of 1 μM and 10 μM test concentrations. […]
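Note: peak tail current of the secondary pulse compared with the same well before compound.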

SMILES	hERG current change (%, negative = inhibition) at 10uM
Cl.O.Oc1ccc2c3c1O[C@H]1[C@@H](O)CC[C@@]4(O)[C@@H](C2)N(CC2CCC2)CC[C@]314	-33.5%
C(=C\c1ccccc1)/CN1CCN(C(c2ccccc2)c2ccccc2)CC1	-6.32%
Cl.Oc1ccc2c3c1O[C@H]1[C@@H](O)CC[C@@]4(O)[C@@H](C2)N(CC2CCC2)CC[C@]314	-3.74%
Clc1ccc(COC(Cn2ccnc2)c2ccc(Cl)cc2Cl)c(Cl)c1.O=[N+]([O-])O (stereo not shown)	-12.1%
CN(C)CCN(Cc1cccs1)c1ccccn1.Cl	-72.7%
CNCC[C@@H](Oc1ccc(C(F)(F)F)cc1)c1ccccc1.Cl	-48.1%
CCN(CC)CCOc1ccc(/C(=C(\Cl)c2ccccc2)c2ccccc2)cc1.O=C(O)CC(O)(CC(=O)O)C(=O)O	1.19%
